# According to PubChem BioAssay AID485297 (National Center for Advancing Translational Sciences (NCATS), 2010):
# The whole screen tested about 320,000 compounds, of which about 9,100 (2.8%) were called active. The shares of active, inactive and inconclusive entries below differ from those in the screen. Calls follow the shape of the dose curve; as a rule, active = well fitted activation curve with a large enough effect; inconclusive = small, poorly fitted or top-dose-only effect; inactive = no such curve, though single readings can be large or run the other way. No potency is given beside an inconclusive call; the fits are too rough.
# Test: qHTS Assay for Rab9 Promoter Activators; also: nearly all actives have a fitted effect of over 60% in size; as to activation, negative = inhibition: % of control where 0% means no effect
# Details: Huh7 Rab9 promoter-luciferase reporter, luminescence, 24 h; series mostly up to 9.22 µM; activation, negative = inhibition: at the top concentration
# How it was run: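 Huh7 reporter line, Rab9 promoter upstream of luciferase. Compound exposure 24 h at 37 °C in reduced-serum medium with 10% FBS. Read-out: luminescence.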
# Potency is read from the fitted curve at half-maximal effect; tags tell the direction and shape of the fitted curve.
Structure (SMILES),Potency,"activation, negative = inhibition"
CCn1nc(C)cc1C(=O)N1CCc2c([nH]c3ccccc23)C1c1cc(F)ccc1F (stereo not drawn),"inconclusive [activator, partial curve]",–
Cc1ccc(N/N=C2\COC(C)(C)CC2=O)cc1,active: 3.16 µM,–
O=C(/C=C/c1cccc2ccccc12)N1CCOCC1,"inconclusive [activator, single point]",–
CCOC(=O)c1ccc(CSc2nnc(N)s2)cc1,"inconclusive [activator, partial curve]",–
COc1ccc(-c2csc(Nc3ncccc3C)n2)cc1OC,"inconclusive [activator, partial curve]",–
Cc1cc(NC(=O)/C=C/c2ccc(Br)cc2)no1,"inconclusive [activator, partial curve]",–
CCC(CC)C(=O)N1CC(=O)Nc2ccc(F)cc2C1c1ccc(F)cc1 (stereo not drawn),–,inactive: 2.07%
Cc1cc(Cl)c2oc(C(=O)NC3CCC(O)CC3)c(C)c2c1 (stereo not drawn),–,inactive: 8.68%
O=C1CCC(C(=O)N2CCCCO2)CN1CCc1ccccc1 (stereo not drawn),"inconclusive [activator, single point]",–
N#Cc1ccccc1N=Cc1ccc(Br)cc1,–,inactive: 0.257%
CN1CCN(c2ccc(NC(=O)c3ccc([N+](=O)[O-])o3)cc2Cl)CC1,"inconclusive [activator, partial curve]",–
Cc1ccc(NCc2nc(SCC(=O)Nc3ccccc3)n[nH]2)cc1,–,inactive: 0.108%
COc1ccc([N+](=O)[O-])cc1N(CC(O)CN1C(=O)NC(C)(C)C1=O)S(=O)(=O)c1ccccc1 (stereo not drawn),–,inactive: -4.36%
CCN(CC)S(=O)(=O)c1cccc(C(=O)Nc2cccc(C)c2)c1,"inconclusive [activator, single point]",–
COc1ccc(C(=O)O)cc1S(=O)(=O)Nc1ccccc1Cc1ccccc1,–,inactive: -1.13%
COCCSc1nnc(NC(=O)c2ccco2)s1,"inconclusive [activator, partial curve]",–
COc1ccc2cc(-c3nc4ccccc4n3C)c(=O)oc2c1,active: 1.26 µM,–
Cc1ccc(NC(=O)N2CCCCCC2)cc1C,active: 3.16 µM,–
CCOC(=O)C1(Cc2ccccc2)CCCN(C(=O)c2cnn(CC)c2)C1 (stereo not drawn),active: 3.98 µM,–
CC1=NN(c2ccccc2)C(=O)/C1=C\C=C1/N(C)c2ccccc2C1(C)C,–,inactive: -1.5%
O=C(N/N=C/c1ccccn1)NC12CC3CC(CC(C3)C1)C2,"inconclusive [activator, partial curve]",–

Structure (SMILES),Potency,"activation, negative = inhibition"
Brc1ccc(-c2ncc3ccccn23)cc1,active: 3.16 µM,–
COc1ccc(CN(C)C(=O)CSc2nnc(C3CC3)n2C2CC2)cc1,–,inactive: 1.04%
COC(=O)c1ccc(N=NNc2ccccc2)cc1,active: 1.26 µM,–
COC(=O)C1CCN(C(=O)C2CCN(C(=O)[C@H](C)NS(=O)(=O)c3ccc(C)cc3)CC2)CC1,–,inactive: -1.17%
COC(=O)c1cccc(CSc2nc3ccccc3[nH]2)c1,"inconclusive [activator, partial curve]",–
O=C(NN=C1CCCC1)c1cccc(Br)c1,–,inactive: -0.445%
CCCn1c(N)c(N(CCOC)C(=O)c2cccc(Cl)c2)c(=O)[nH]c1=O,"inconclusive [activator, single point]",–
NC(=O)c1ccccc1N/C=C/C(=O)c1ccco1,active: 3.16 µM,–
CC(=O)Nc1ccc(S(=O)(=O)NCCc2ccccn2)cc1,"inconclusive [activator, partial curve]",–
COc1ccc([C@@H](C)NC(=O)c2ccc3oc(C(C)C)nc3c2)cc1,"inconclusive [activator, partial curve]",–
CCOc1ccc(-c2nc(-c3ccccc3)no2)cc1OCC,"inconclusive [activator, partial curve]",–
COc1cc(NS(=O)(=O)c2ccc(NC(=S)NC(=O)COc3ccccc3OC)cc2)nc(OC)n1,–,inactive: -2.76%
N/C(=N\OC(=O)c1cc(-c2ccccc2)nc2ccccc12)c1ccncc1,–,inactive: -0.274%
CC1CCCCN1C(=O)C1CC(c2ccc(F)cc2)=NO1 (stereo not drawn),active: 2 µM,–
Cc1ccc(NC(=O)c2ccc3nsnc3c2)c(C)c1,"inconclusive [activator, partial curve]",–
CC(C)OC(=O)c1ccc(NC(=O)c2ccco2)cc1,active: 3.16 µM,–
Cc1ccc(OCC(=O)Nc2ccccc2-c2ccccc2)cc1,"inconclusive [activator, partial curve]",–
Oc1ccc(/C=C/c2cnccn2)cc1,"inconclusive [activator, single point]",–
COc1cccc(NC(=O)Nc2nccc(C)n2)c1,active: 0.562 µM,–
CCCSC1=C(C#N)C(c2ccc(OC)cc2)C2=C(CC(C)(C)CC2=O)N1 (stereo not drawn),–,inactive: 0.241%
CCS(=O)(=O)c1ccc(C(=O)Nc2ccccc2OC)c(Cl)c1Cl,–,inactive: -1.74%

Structure (SMILES),Potency,"activation, negative = inhibition"
O=C(Nc1ccc2c(c1)OCO2)N1CCN(c2ccccc2Cl)CC1,"inconclusive [activator, single point]",–
Cc1ccc(NC(=O)/C=C/c2ccco2)nc1,–,inactive: 21.7%
COc1ccccc1-c1nn2c(-c3ccco3)nnc2s1,"inconclusive [activator, single point]",–
NNC(=O)c1ccccc1OCc1ccccc1,–,inactive: -3.65%
Cc1ccc(N/C(=C\C(=O)c2ccccc2)C(=O)O)cc1,"inconclusive [activator, single point]",–
CCN(C1CCCCC1)S(=O)(=O)CCNC(=O)c1ccc2c(c1)OCO2,–,inactive: -1.38%
COCCCC1CCN(C(=O)C2CCC(=O)N(C3CCCC3)C2)CC1 (stereo not drawn),–,inactive: -0.828%
O=C(OCC(=O)N1CCOCC1)c1ccc2ccccc2c1,–,inactive: 23.1%
COc1ccc(C(=O)NOCc2ccccc2)cc1,"inconclusive [activator, single point]",–
Cc1ccc(S(=O)(=O)Nc2c(C)nn(C)c2C)c(C)c1,–,inactive: -3.37%
Cc1ccc(NC(=O)Cc2nnc(SCC(=O)Nc3ccc(N4CCOCC4)cc3)n2C)cc1,–,inactive: -0.175%
Cc1ccnc(NC(=O)c2cccc3ccccc23)c1,"inconclusive [activator, single point]",–
COc1ccc(C(=O)O/N=C(\N)c2ccc(OC)c(OC)c2)cc1,"inconclusive [activator, single point]",–
CC(OC(=O)c1ccc([N+](=O)[O-])s1)C(=O)NC1CCCCC1C (stereo not drawn),–,inactive: -9.39%
Cc1csc2ncc(C(=O)NCCc3ccccc3)c(=O)n12,"inconclusive [activator, single point]",–
Cc1nc2cc(Nc3nnc(-c4ccccc4)c4ccccc34)ccc2n1C,"inconclusive [activator, partial curve]",–
Cc1cc(C(=O)CSc2nc3ccccc3o2)c(C)n1C1CC1,active: 2.24 µM,–
c1csc(-c2csc(-c3cccs3)n2)c1,"inconclusive [activator, single point]",–
O=C(Nc1ccc2c(c1)OCCO2)c1ccc(Cl)cc1,active: 0.447 µM,–
O=S(=O)(c1ccccc1Cl)N1CCC(O)(c2ccc3c(c2)OCO3)CC1,–,inactive: -0.0553%
O=C(N/N=C/c1cn(-c2ccccc2)nc1-c1cc2ccccc2o1)c1cccnc1,"inconclusive [activator, single point]",–

Structure (SMILES),Potency,"activation, negative = inhibition"
Cc1cc(C(F)(F)F)n(-c2nc(C(=O)NN)cs2)n1,–,inactive: 21.8%
COc1ccc(-c2nc3ccccn3c2NCc2ccc3c(c2)OCO3)cc1,"inconclusive [activator, single point]",–
N#C/C(=C\c1ccc(-c2ccccc2[N+](=O)[O-])o1)C(N)=O,–,inactive: -1.36%
O=C(/C=C/Nc1cccc(C(F)(F)F)c1)c1ccc(Oc2ncccn2)cc1,"inconclusive [activator, partial curve]",–
COc1ccc(NC(=S)NC(=O)c2ccc(Br)o2)cc1,active: 3.16 µM,–
O=C(/C=C/c1cc([N+](=O)[O-])ccc1OC(F)F)Nc1cccc2ccccc12,"inconclusive [activator, single point]",–
COC(=O)c1cn[nH]c1NC(=S)Nc1ccc(Cl)c(Cl)c1,active: 0.355 µM,–
CC(=O)c1c(C)[nH]c(C(=O)OCc2ccccc2)c1C,"inconclusive [activator, partial curve]",–
CSc1nc2ccc(NC(=O)NC(=O)c3c(F)cccc3F)cc2s1,"inconclusive [activator, partial curve]",–
Cc1ccccc1C1c2[nH]c3ccccc3c2C[C@H]2C(=O)N(c3ccccc3C(=O)NCCCN3CCOCC3)C(=O)N12 (stereo partly drawn),–,inactive: 1.81%
Cc1cc(CN2CCCC(C(=O)Nc3ccc(-c4nc5ccccc5[nH]4)cc3)C2)n[nH]1 (stereo not drawn),"inconclusive [activator, partial curve]",–
O=[N+]([O-])c1ccccc1-c1ccc(C(=S)N2CCCC2)o1,active: 2.82 µM,–
Cc1ccc(NC(=O)Nc2ccc(F)cc2)nc1,active: 3.98 µM,–
Cc1ccc(C(=O)NCCN2CCNC2=O)cc1,"inconclusive [activator, partial curve, poor fit]",–
CCOC(=O)C1CCCN(C(=O)CC(C)c2ccccc2)C1 (stereo not drawn),active: 2 µM,–
NC(=O)c1sc2nc3c(c(-c4cccnc4)c2c1N)CCC3,–,inactive: -4.03%
O=C(N/N=C/c1ccc([N+](=O)[O-])o1)c1sc2ccccc2c1Cl,–,inactive: -0.0948%
CCCc1cc2c(=O)n(NC(=O)c3nn(C)cc3[N+](=O)[O-])c(C)nc2s1,–,inactive: 1.95%
Cc1nc2ccccc2c(=O)n1/N=C/c1ccccn1,–,inactive: 24%
CC(=O)Nc1ccc(/C=C/c2noc(-c3ccccc3O)n2)cc1,"inconclusive [activator, single point]",–
